Experimental findings from the supplement of paper PMC11417369 are described below.

Some of the results follow.

The assay concerns PfSIP2 AP2 domain 1 (GST-tagged). Briefly: gcPBM binding intensity (ln(normalized median fluorescence intensity)); higher = stronger DNA binding. The method in brief:
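GST-tagged P. falciparum DNA-binding domains, expressed in E. coli (about 25 μg on average), were applied for 1 h to an Agilent 4 × 180k array of primer-extended double-stranded 36-bp intergenic genomic probes plus negative controls. The binding buffer was 1× PBS with 1% milk, 0.2 mg/ml BSA, 0.5% salmon testes DNA and 0.03% Triton X-100. Bound protein was detected with Alexa488 anti-GST antibody and scanned at 488 nm. Binding intensity is the highest Masliner-normalised natural-log median intensity across replicate spots of either probe orientation.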
Turning to “ATAATATGAAGAAGCACACTCAATTAAATACAGATA [CACACA_site4690]”, the “gcPBM binding intensity (ln)” value was 6.84. To “ATACACACATATATGTGTACATATACATATATATAT [XGTACX_site6744]” belongs 8.43. To “AACAAAATAGGGAACACACACATGTCGATATATAAA [CACACA_site7265]” belongs 6.99; to “CAAAAGCGATACGGCACACATTTCCTGTTTAAATGA [CACACA_site5519]”, 6.85.

Consider “TTAATTTTTAGAAGAACACACACATATATATTATGA [CACACA_site7969]”, for which the “gcPBM binding intensity (ln)” value came to 6.76. On to “AAATTGATTATAAATTGTACAAGAACATACAACCTT [XGTACX_site5986]”, for which the “gcPBM binding intensity (ln)” value came out at 6.86. The figure for “TCATATAGATTATACACACACATATATAGATATATA [CACACA_site6587]” is 6.99; for “TTATATTTCAATTAAACATGCATTTTTGTGTAGCAC [TGCATGCA_site214]” it is 6.98. On to “TTATATATTTTATTATTTATAATCTTTTTTTTATTT [CACACA_negctrl_site112]”, for which the “gcPBM binding intensity (ln)” value was 6.71. “CATTTTTTAATAATAGCACACAGGACATACAAAACA [CACACA_site1245]”: the “gcPBM binding intensity (ln)” value was found to be 7.37.

For “ACAGTATCTGGTAGCTGTACGAGTCGTAGAGTGTAG [XGTACX_site2011]”, the “gcPBM binding intensity (ln)” value was 7.15.

As to “AAAATATAAAGTATTTGTACATAATATATTTTTAAA [XGTACX_site3494]”, the “gcPBM binding intensity (ln)” value is 6.81. Take “AATATATAAATAAATATATAAATAAATAATTGAAGC [CACACA_negctrl_site348]”: the “gcPBM binding intensity (ln)” value turned out to be 7.04. The figure for “TTCATTAATGTGTAATGTACTTGTAATATGGGATTA [XGTACX_site3903]” is 7.06. To “TGTTCTCTTCTTTTTTATTTTCCAAAGTAATAAGTT [TGCATGCA_negctrl_site424]” belongs 7.19; to “TATATATATTTATATGCATGTAATATATTTGTATTG [TGCATGCA_site323]”, 7.27. The figure for “TAAATAAGTATTACTAGTACACACAAGTTGTTAATC [XGTACX_site7074]” is 6.99; for “AATTATTTTATGAAAAGTACACATTGTTTTAATTCT [XGTACX_site4506]” it is 7.12. Consider “CATAAATCAGCCATAACACACATACATAAATACATA [CACACA_site4380]”, for which the “gcPBM binding intensity (ln)” value was 7.04. To “TTAATTATAATTATATGTACGAACTTTTTTTTTTTT [XGTACX_site6586]” belongs 7.42.

Regarding “AGAAAAAAGAGGGATACACACAAACATATATATATA [CACACA_site5269]”, the “gcPBM binding intensity (ln)” value was determined as 9.01. As to “CACAAAAAGAAACACACACACATATATATATATATA [CACACA_site999]”, the “gcPBM binding intensity (ln)” value worked out at 9.67. Regarding “ATTCTAAATAATAAGAGTACAAATAATATGGAGAAG [XGTACX_site5209]”, the “gcPBM binding intensity (ln)” value was found to be 7.42.

With “GAAAATATGTAATAGTGTACACATATATATGTATAT [XGTACX_site306]”, the “gcPBM binding intensity (ln)” value came out at 7.5. To “TGCTCATTCCTGTCATGTACATATTATATATATATA [XGTACX_site6890]” belongs 9.24; to “ATATGAACATTTACATGTACATGTAAATGTAACACT [XGTACX_site4574]”, 7.17; to “ACTCCATAATATTGATGTACTATAATGCATTTATTT [XGTACX_site5562]”, 7.25. For the sequence “TATTTATTTTCATATAGTACTTTTTTCAGGCATATA [XGTACX_site6691]”, the “gcPBM binding intensity (ln)” value was determined as 7.09. To “TTATAGAATTTATTTACACACAAACATTTATACTTT [CACACA_site7592]” belongs 6.93; to “TTTATTTATGTTGAAACATGCAAAAAGTTATTTATA [TGCATGCA_site716]”, 6.78. Regarding “TTCAAAAGCCGGATAACATGCAGTAGTAGAACAAAC [TGCATGCA_site413]”, the “gcPBM binding intensity (ln)” value came out at 7.31. For the sequence “TTTCTGTGTTTTGGTTGTACACACGCTACATTATAT [XGTACX_site5669]”, the “gcPBM binding intensity (ln)” value came to 7.27. To “TTGTTTTTTTTTTCTATAAGCATAAAAATGATATAA [XGTACX_negctrl_site356]” belongs 6.83; to “AAATTAAAAAAATAATGTACATGTATTTATTATGTA [XGTACX_site2419]”, 7.12.

On to “TTTATTTATTATTAAAGTACTAAATCATATAATTAT [XGTACX_site5727]”, for which the “gcPBM binding intensity (ln)” value was 6.72. The figure for “TTTTATTTCTTTGCACCATTTTAAATACAAACAAAT [CACACA_negctrl_site1553]” is 10.7. To “TAAAACAATACTTTGTGCTTCTCTGGTTTTTTTTTT [GTGCAC_negctrl_site284]” belongs 6.82; to “AGTATTCACTTAATATGTACATATTTATTATAAGAG [XGTACX_site3434]”, 7.09; to “GCTTTTAAAATAATTGGTACACATGTATAAATTCAA [XGTACX_site2327]”, 7.2.

For “TGGTATATAAAACACACACACATATGTATTTATATA [CACACA_site4665]”, the “gcPBM binding intensity (ln)” value is 7.11. To “TTTTGCCTTTCTACTTGTACTTAAAATATTATAATT [XGTACX_site5483]” belongs 7.61; to “TGTATGAAATATATTACACACATATAAAATCTATAT [CACACA_site6514]”, 6.75; to “TTGATGTTGGTAGGATGTACGGTACCGGTAAAGTTT [XGTACX_site7705]”, 7.1.

For “TTTTTAATTTTTTGTTGTACATATAATATATTATTA [XGTACX_site4903]”, the “gcPBM binding intensity (ln)” value is 7.17. To “AAGCTTCATTAATATACACACATATATGCGTATATT [CACACA_site3695]” belongs 6.81; to “TATATAATTATAAGAACACACATATATATATATATA [CACACA_site2472]”, 9.54; to “AAATTTGAAGAATATTGTACGCATAATAATTAAATA [XGTACX_site4300]”, 7.2. The figure for “ATGCTTTTTAAATGATTGCACTAGATTGTAATATGT [GTGCAC_site9666]” is 8.08; for “TATATATATATTTTAACACACACATATATATATTTA [CACACA_site8892]” it is 8.67. The figure for “ATATATATATATTGCACACACAATTATTATTATTAT [CACACA_site2299]” is 9.33; for “GTGCATATCTGATATACACACAATAAAATAGTATGT [CACACA_site7203]” it is 9.24; for “AATTATATATTTGAGAGTACATATGTAATGTTTATA [XGTACX_site6970]” it is 7.09. Turning to “CATATATTATTTATACGTACTAATAAAATAAATCAA [XGTACX_site1030]”, the “gcPBM binding intensity (ln)” value is 7.29. To “TATGATACATAAATATGTACGTATAATATATATTTA [XGTACX_site7002]” belongs 6.96; to “CCCGTAAATTATGAGTGTACGTTATTTTTTAAAATG [XGTACX_site3946]”, 7.07. The figure for “ACATATACATATATATGTACATAAATATATATATAT [XGTACX_site8630]” is 9.03.
